Experimental data taken from PubChem BioAssay AID652104 (National Center for Advancing Translational Sciences (NCATS), 2013).
The whole screen tested about 410,000 compounds, of which about 7,200 (1.8%) were called active. This list was built around the results that the source calls inconclusive (neither active nor inactive); the mix of calls is not that of the screen. Calls follow the shape of the dose curve; as a rule, active = well fitted activation curve with a large enough effect; inconclusive = small, poorly fitted or top-dose-only effect, or another doubt; inactive = no such curve, though single readings can be large or run the other way. No potency is given beside an inconclusive call; the fits are too rough.

Experiment: qHTS of TDP-43 Inhibitors; also: nearly all actives have a fitted effect of over 50% in size; as to growth rescue (activation): % of control where 0% means no effect
Conditions: TDP-43 expressing yeast growth rescue, BacTiter-Glo, 24 h; growth rescue (activation): at 46.1 µM (top of the series) unless noted
Procedure, shortened: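 Galactose-induced TDP-43 yeast, OD600=0.02, compound pinned; 24 hr, 30 deg C; BacTiter-Glo luminescence for growth. Inhibitors of TDP-43 toxicity read as activators.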
Potency is read from the fitted curve at half-maximal effect; tags tell the direction and shape of the fitted curve.

Which “growth rescue (activation)” value does the source give for Cc1ccc(OC(=O)CSc2nnc(-c3ccc4c(c3)OCO4)o2)c(C)c1 here?
The value was inactive: 17.9%.

For Cc1cccc(CCn2c(=O)c3ccccc3n(Cc3ccccc3C)c2=O)c1, which “growth rescue (activation)” value is on record?
Its value is inactive: 16.1%.

Which “growth rescue (activation)” value does the source give for Cc1ccc(N(C)C(=O)N2CCN(S(=O)(=O)c3ccc(C)c(C)c3)CC2)cc1 here?
Its value is inactive: -20.8%.

Which “growth rescue (activation)” value does the source give for CCCCN(C)C(=O)C1CCCN(S(=O)(=O)c2ccc3c(c2)CC(C)N3C(=O)C2CC2)C1 (configuration not stated) here?
Its value is inactive: -42.5%.

With CCCCOC(=O)c1cccc(NC(=O)CC)c1 as the compound, how does the Potency read?
The Potency was inconclusive [activator, partial curve].

Which Potency does the source give for O=C(COC(=O)[C@H](Cc1ccccc1)NC(=O)c1ccco1)Nc1ccccc1 here?
The Potency was inconclusive [activator, partial curve].

For Cc1ccc(NC(=O)N2CCN(C(=O)c3nsc4ccccc34)CC2)cc1C, which Potency is on record?
The Potency was inconclusive [activator, partial curve].

Which Potency does the source give for O=C(CNS(=O)(=O)c1c(Cl)cccc1Cl)OCc1csc(-c2ccccc2)n1 here?
Its Potency is inconclusive [activator, partial curve].

With COc1ccc(/C(=N/OC(C)=O)c2nccc3cc(OC)c(OC)cc23)cc1OC as the compound, how does the “growth rescue (activation)” value read?
Its value is inactive: -9.28%.

With CCOc1ccc(OCCCC(=O)Nc2cc(Cl)ccc2-n2cncn2)cc1 as the compound, how does the Potency read?
Its Potency is inconclusive [activator, partial curve].

With COc1ccc(Cl)cc1NC(=O)C(=O)NCc1ccc(Cl)cc1 as the compound, how does the “growth rescue (activation)” value read?
Its value is inactive: 3.04%.

Which Potency does the source give for Cc1ccc(Cn2cc(-c3ccccc3)nn2)cc1 here?
Its Potency is inconclusive [activator, single point].

With CCOC(=O)[C@]12CCC=C1N(Cc1ccc(Cl)cc1Cl)C(=O)[C@H](CC(=O)NCC13CC4CC(CC(C4)C1)C3)C2 as the compound, how does the “growth rescue (activation)” value read?
Its value is inactive: 16.6%.

For COc1ccccc1C(C)NCC(=O)Nc1ccccc1C(F)(F)F (configuration not stated), which “growth rescue (activation)” value is on record?
The value was inactive: -2.98%.

For O=C(Nc1ccc(F)c(Cl)c1)c1cc(S(=O)(=O)NCc2ccc3c(c2)OCO3)ccc1F, which Potency is on record?
Its Potency is inconclusive [activator, single point].

Which “growth rescue (activation)” value does the source give for C#CCOCCOCCOCCNc1nc(N2CCOCC2)nc(N2CCN(C(=O)[C@H](CC(N)=O)n3cc([C@@H](N)C(C)C)nn3)CC2)n1 here?
Its value is inactive: 9.45%.

With CCOc1ccc2nc(N3CCCC(C(=O)NCCc4ccc(OC)cc4OC)C3)sc2c1 (configuration not stated) as the compound, how does the Potency read?
Its Potency is inconclusive [activator, single point].

For CC(C)Cc1nn2cc(-c3cccc(Br)c3)nc2s1, which Potency is on record?
Its Potency is inconclusive [activator, partial curve].

Which Potency does the source give for O=C(O)CCc1ccc(-c2ccc(Br)cc2)n1-c1ccccc1O here?
Its Potency is inconclusive [activator, single point].

Which Potency does the source give for CCOC(=O)C1CCN(c2cc3c(cc2NC(=O)c2ccccc2Cl)n(C)c(=O)n3C)CC1 here?
Its Potency is inconclusive [activator, single point].

With COC(=O)c1ccc2[nH]c(C)cc(=O)c2c1 as the compound, how does the “growth rescue (activation)” value read?
The value was inactive: 1.35%.

For COc1ccc(N2COC3c4cccc5cccc(c45)C32)cc1 (configuration not stated), which Potency is on record?
Its Potency is active: 11.2 µM.

Which “growth rescue (activation)” value does the source give for CC(C)C[C@@H](CN1CCC[C@H]1CN1C(=O)C(=O)NC[C@@H]1Cc1ccc(O)cc1)N1C[C@H](Cc2ccccc2)N(CC2CCCCC2)C(=O)C1=O here?
Its value is inactive: 12.7%.

For CCc1ccccc1NC(=O)Cn1nnc(C(=O)NCc2ccco2)c1N, which “growth rescue (activation)” value is on record?
The value was inactive: 6.14%.

With Cc1ccc(-c2nc(CS(=O)(=O)CC(=O)NC(C)CCc3ccccc3)c(C)o2)cc1 (configuration not stated) as the compound, how does the Potency read?
Its Potency is inconclusive [activator, single point].

For O=C(c1cc(COc2ccc(F)cc2Cl)on1)N(CCO)Cc1cccs1, which Potency is on record?
The Potency was inconclusive [activator, single point].

Which Potency does the source give for COc1ccc(/C=N/Nc2nc(C)cc(-c3ccccc3)n2)c(OC)c1 here?
The Potency was inconclusive [activator, partial curve].

For CCOc1ccc(S(=O)(=O)Nc2nc3ccccc3nc2Cl)cc1, which Potency is on record?
Its Potency is active: 22.4 µM.

Which “growth rescue (activation)” value does the source give for S=c1[nH]nc(-c2cc(-c3ccccc3)n[nH]2)n1/N=C/c1ccc(Cl)c(Cl)c1 here?
Its value is inactive: 7.05%.

With Cc1cccc(CSCCNC(=S)Nc2ccccc2)c1 as the compound, how does the Potency read?
The Potency was active: 15.8 µM.

With Cc1c(Cl)cccc1-n1nnnc1-c1cccs1 as the compound, how does the Potency read?
Its Potency is inconclusive [activator, partial curve].

For COc1ccccc1CNC(=O)c1csc(Cc2ccc(Cl)cc2)n1, which Potency is on record?
Its Potency is inconclusive [activator, single point].

Which Potency does the source give for COc1ccc(Oc2ccc(/C=N/NC(=O)c3cccnc3)cc2[N+](=O)[O-])cc1 here?
The Potency was inconclusive [activator, partial curve].

Which “growth rescue (activation)” value does the source give for Cc1ccc(C)c(N(C)C(=O)C2CCN(c3ncnc4c3nc3n4CCCCC3)CC2)c1 here?
Its value is inactive: 0%.

Which Potency does the source give for CCN(CCO)c1ncnc2c1sc1nc(CC(C)C)c3c(c12)CC(C)(C)OC3 here?
The Potency was active: 17.8 µM.

With CC1CCN(C(=S)NC2CCCCC2)CC1 as the compound, how does the Potency read?
The Potency was inconclusive [activator, full curve, poor fit].

For CCOc1ccc(S(=O)(=O)N2CCc3cc(OC)c(OC)cc3C2)cc1, which Potency is on record?
The Potency was inconclusive [activator, partial curve].

With COc1ccc(-n2c(-c3cnccn3)n[nH]c2=S)cc1 as the compound, how does the “growth rescue (activation)” value read?
Its value is inactive: -18.6%.

For COc1ccc(-c2c(C)oc3c(CN4CCN(CCO)CC4)c(O)ccc3c2=O)cc1OC, which “growth rescue (activation)” value is on record?
Its value is inactive: -11.9%.

With Cc1ccc(CNC(=O)C2COc3ccccc3O2)cc1 (configuration not stated) as the compound, how does the Potency read?
Its Potency is inconclusive [activator, single point].

For Cc1ccc(N(Cc2ccccc2)C(=O)c2cccc(F)c2)cc1, which Potency is on record?
Its Potency is inconclusive [activator, single point].

With CSc1nnc(-c2ccc(Br)s2)n1C as the compound, how does the Potency read?
The Potency was inconclusive [activator, partial curve].

With O=c1oc2cc(O)ccc2cc1S(=O)(=O)c1ccccc1 as the compound, how does the “growth rescue (activation)” value read?
The value was inactive: -14.5%.

Which Potency does the source give for COc1cccc(C2=NN(C(C)=O)C(c3cccs3)C2)c1 (configuration not stated) here?
Its Potency is inconclusive [activator, single point].

For O=C(COC(=O)CSc1ccc([N+](=O)[O-])cc1)NCC1CCCO1 (configuration not stated), which “growth rescue (activation)” value is on record?
The value was inactive: 1.75%.

With CCc1ccc(S(=O)(=O)c2c(C(=O)c3ccc(C)c(C)c3)cnc3ccccc23)cc1 as the compound, how does the “growth rescue (activation)” value read?
The value was inactive: 27.6%.

Which “growth rescue (activation)” value does the source give for CCn1c(=O)cc(OCC(=O)Nc2cc(OC)c(OC)c(OC)c2)c2ccccc21 here?
Its value is inactive: 13.6%.
